PMC4336329 (PLoS ONE, 2015)
The campaign covered roughly 310,000 compounds. About 14,000 (4.5%) showed an effect of 50% or more. Effects have a minus sign here. This is one part of the list.

Target: human ether-à-go-go-related gene (hERG) potassium channel (human, UniProt Q12809)
Test: primary screen, population patch clamp on CHO cells stably expressing hERG
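Note: peak tail current of the secondary pulse compared with the same well before compound.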

human ether-à-go-go-related gene (hERG) potassium channel, sequence (Q12809 whole entry, looked up): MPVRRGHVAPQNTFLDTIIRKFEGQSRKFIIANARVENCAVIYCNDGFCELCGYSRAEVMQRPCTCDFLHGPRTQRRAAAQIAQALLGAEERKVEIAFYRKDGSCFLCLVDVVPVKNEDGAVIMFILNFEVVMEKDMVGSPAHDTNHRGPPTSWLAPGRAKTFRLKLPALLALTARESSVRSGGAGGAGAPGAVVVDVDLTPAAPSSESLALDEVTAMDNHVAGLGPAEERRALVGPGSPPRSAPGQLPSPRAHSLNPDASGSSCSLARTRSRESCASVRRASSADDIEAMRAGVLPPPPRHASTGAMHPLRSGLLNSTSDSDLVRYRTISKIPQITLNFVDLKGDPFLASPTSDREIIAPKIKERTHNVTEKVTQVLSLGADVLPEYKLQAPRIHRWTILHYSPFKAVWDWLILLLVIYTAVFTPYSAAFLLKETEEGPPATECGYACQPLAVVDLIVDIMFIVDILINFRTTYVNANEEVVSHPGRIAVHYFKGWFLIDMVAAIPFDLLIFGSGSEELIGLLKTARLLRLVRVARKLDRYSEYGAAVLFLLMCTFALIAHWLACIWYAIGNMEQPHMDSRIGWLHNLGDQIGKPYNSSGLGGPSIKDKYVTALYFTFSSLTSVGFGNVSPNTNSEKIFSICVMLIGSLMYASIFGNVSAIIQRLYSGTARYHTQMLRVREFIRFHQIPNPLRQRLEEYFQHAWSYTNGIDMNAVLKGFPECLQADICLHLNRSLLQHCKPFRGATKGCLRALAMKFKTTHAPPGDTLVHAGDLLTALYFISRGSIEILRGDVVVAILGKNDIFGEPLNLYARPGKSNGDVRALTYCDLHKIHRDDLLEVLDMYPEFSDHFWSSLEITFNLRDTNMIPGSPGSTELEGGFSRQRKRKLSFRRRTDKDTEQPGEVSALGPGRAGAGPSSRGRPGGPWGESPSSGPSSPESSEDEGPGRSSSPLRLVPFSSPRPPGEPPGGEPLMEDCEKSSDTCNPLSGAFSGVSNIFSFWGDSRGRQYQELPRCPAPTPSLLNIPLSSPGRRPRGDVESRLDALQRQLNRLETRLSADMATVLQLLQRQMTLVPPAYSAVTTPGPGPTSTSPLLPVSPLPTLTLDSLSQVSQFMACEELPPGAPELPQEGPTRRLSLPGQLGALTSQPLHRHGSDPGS

SMILES | hERG current change (%, negative = inhibition) at 10uM [%]
Cc1cc(N=Cc2cc(Br)ccc2O)no1 | -4.77
Cc1nnc(SCc2cccc([N+](=O)[O-])c2)[nH]c1=O | -16.5
CCCn1c(N)c(N(CCOC)C(=O)CCC2CCCCC2)c(=O)[nH]c1=O | 6.04
CC(C)n1cc(C(=O)N2CCCC(Nc3ccc(F)c(F)c3)C2)cn1 (stereo not shown) | 10.3
CC1CCN(C(=O)CSc2nc(N)c(NC(=O)c3ccccc3)c(=O)[nH]2)CC1 | 6.82
Oc1ccc(O)c(Cc2nc3ccccc3s2)c1 | 12.1
COc1ccc(N(CC(=O)Nc2cc(C)on2)S(=O)(=O)c2cc(C)ccc2C)cc1 | -21.7
CCCCOC(=O)c1ccc(NC(=O)c2cc(Cl)ccc2OC)cc1 | 2.36
CC(C)c1ccc(NC(=O)CSc2nc3ccsc3c(=O)n2CCC(=O)O)cc1 | -5.01
Cc1ccc(NC(=O)c2ccccc2N(C)S(C)(=O)=O)cc1C | 21.6
O=C1CSc2ccccc2N1Cc1ccccc1F | -55.8
COc1ccc(-c2nc(N/N=C(\C)c3ccc(O)cc3)c3ccccc3n2)cc1 | 19
O=C(CN1CCC(C(=O)c2ccc(F)cc2)CC1)Nc1ccccc1Cl | -20.5
CC1Nc2ncnc(N3CCOCC3)c2N(Cc2ccc(Cl)cc2)C1=O.O=C(O)C(F)(F)F (stereo not shown) | -9.85
Cc1ccc(-c2nnc(C)c(N3CCCC3)n2)cc1 | 13
CCC(C)(C)n1nnnc1C(c1ccc(O)c(OC)c1)N1CCc2ccccc2C1.Cl (stereo not shown) | -19.7
O=C(Nc1ccc2c(c1)OCO2)c1cc2n(n1)C(C(F)(F)F)CC(c1ccccc1)N2 (stereo not shown) | 2.64
Cc1nn(C(C)C(=O)NC(C)CCc2ccccc2)c(=O)c2cc3occc3n12 (stereo not shown) | -13.7
O=C(CCSCc1ccccc1)Nc1ccc2c(c1)OCCO2 | 11.9
CC(C)(C)c1ccc(-c2cc(-c3ccccc3O)[nH]n2)cc1 | 20.5

SMILES | hERG current change (%, negative = inhibition) at 10uM [%]
Cc1noc(NS(=O)(=O)c2ccc(NC(=O)c3ccc(N(C)C)cc3)cc2)c1C | 12.2
N/C(=N\OC(=O)c1cccc(Cn2cc(C(F)(F)F)ccc2=O)c1)c1ccc(Cl)cc1 | -13.8
Cc1[nH]c2ccccc2c1C(C[N+](=O)[O-])c1cccs1 (stereo not shown) | -14.2
CC(=O)Nc1ccc(NC(=O)C2CCN(C(=O)c3cccs3)CC2)cc1 | 15.9
CCOC(=O)N1CCN(C(=S)NC(=O)c2cncc(Br)c2)CC1 | 6.86
COc1ccc(NC(=O)C2CCCN2C(=O)OCc2ccccc2)c(OC)c1 (stereo not shown) | -7.86
Cc1nn(-c2ccccc2)c(C)c1NC(=O)COc1ccc(F)cc1Cl | -35.8
COc1cccc(Nc2nc(CC(C)=O)ns2)c1 | 21.2
CCOC(=O)c1ccc(-c2ccc(C(=O)Nc3cccnc3)o2)cc1 | 11
CC1=C(n2nnc([N+](=O)[O-])n2)C(c2cccnc2)C(C#N)=C(N)O1 (stereo not shown) | -5.58
Cc1ccc(Nc2c(-c3ccccn3)nc3cccc(C)n23)cc1 | 10.1
CC1C(=O)N(Cc2ccccc2F)c2ccccc2N1C(=O)c1c(F)cccc1F (stereo not shown) | -6.04
Cc1cc(Oc2ccc(=O)n(C)n2)nc(SCC(N)=O)n1 | 8.09
CC(=O)Nc1ccc(NC(=O)c2ccccc2Nc2ccccc2)cc1 | 12.7
Cc1ccc(S(=O)(=O)N(CC(=O)NN=C2CCN(C)CC2)c2ccc(F)cc2)cc1 | 3.99
CCOC(=O)N1CCN(C(=O)Cc2ccsc2)CC1 | 3.68
CCc1nnc(NC(=O)Cc2ccc(OC)cc2)s1 | -4.6
COc1cc(NC(=O)c2ccc(COCC(F)(F)F)cc2)cc(OC)c1OC | 1.25
Cc1nn(-c2nnc(C)c(=O)[nH]2)c(C)c1SCC(=O)Nc1ccc(F)cc1 | 17.6
C[C@]12C(=O)N(c3ccc(C(F)(F)F)cc3)C(=O)N1[C@@H]1c3ccccc3OC[C@@H]1[C@H]2c1ccccc1 | 10.1

SMILES | hERG current change (%, negative = inhibition) at 10uM [%]
c1cnc(N2CCN(c3cnccn3)CC2)nc1 | 3.42
Cc1c(Cl)cccc1N(CC(=O)NC(C)c1ccccc1)S(C)(=O)=O (stereo not shown) | -3.41
Cc1nc2nc[nH]n2c(=O)c1CCC(C)C | 4.34
COc1ccccc1NC(=O)CN1C(=O)NC(CC(C)C)C1=O (stereo not shown) | 4.37
CN(C)c1cnn(-c2ccccc2)c(=O)c1Cl | 7.34
CC1CCN(C(=O)CCCOc2ccc(Cl)cc2)CC1 | -27.7
COC(=O)c1ccccc1NC(=S)NC(C)=O | 32.6
CCN(CC)C(=O)c1ccc2c(c1)nnn2C | 12.5
Cn1c(SCc2ccccn2)nnc1-c1ccncc1 | -14.5
Cc1cc(C)c(S(=O)(=O)N(CC(=O)NCc2cccnc2)C2CCCCC2)c(C)c1 | -37.4
CNC(=O)c1cccc(NC(=O)CCCNC(=O)c2ccc(Cl)cc2)c1 | 9.43
CN1/C(=C\C(=S)NC(=O)c2cccc(Br)c2)C(C)(C)c2ccccc21 | -7.85
Cc1ccc(CNC(=O)CCc2cn(C)c3ccccc23)cc1 | 7.06
Cc1ccc(Nc2cc(=O)[nH]c(=O)[nH]2)c(C)c1 | 14.7
CC1(C)NC(=O)N(CN2C(=O)NC(C)(C)C2=O)C1=O | 7.67
CCOC(=O)c1cccc(NC(=O)CSc2nnnn2CC)c1 | -10.2
CCN(CC)CCCn1c2c(c(SCC(=O)Nc3ccc(OC(F)(F)F)cc3)nc1=O)CCC2 | -67.7
C=CCn1c(SCC(=O)Nc2nnc(CC)s2)nnc1-c1ccco1 | -4.33
